Results taken from PubChem BioAssay (NCATS).
“And” between values parts separate entries of the source, which are not always exact repeats. Identical values can stand only once. Inconclusive results, whose numbers are uncertain, are shown with a selection of clear calls. Potencies beside an inconclusive call are fits to weak or partial responses and may not hold up. The source made the active and inactive calls. The call rests on the fitted dose curve; in most records, active means well fitted inhibition curve with a large enough effect; inconclusive means small, poorly fitted or top-dose-only effect; inactive means flat fitted curve, though single readings scatter.

assay: qHTS for Inhibitors of Plasmodium falciparum (7G8) proliferation (AID 504316); further: nearly all actives have a fitted effect of over 65% in size; conditions: P. falciparum 7G8 in erythrocytes, SYBR Green DNA, 72 h; series mostly up to 6.7 µM
Outline: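 Parasite growth measured as SYBR Green DNA fluorescence (ex 485, em 535 nm) after overnight lysis following 72 h culture at 37 °C, 0.3% parasitemia, 2.5% hematocrit. Values normalized against DMSO and 0.29 uM artemisinin controls, with plate-stack correction.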
Potency means the concentration at half of the fitted maximal effect; tags describe the fitted curve by direction and shape.

Compound | Potency
COC(=O)N[C@H](C(C(=O)OC)=C(C)NCc1ccccc1)c1ccccc1 | inconclusive: 1.69 µM [inhibitor, single point]
CCN1C(=NCCCCO)N[C@@H](CCc2ccccc2)[C@H](C(=O)OC)[C@H]1C | inactive
COC(=O)C1=C(C(=O)OC)[C@@H]2Nc3ccccc3[C@@]23C[C@@H](C(=O)OC)N(S(=O)(=O)c2ccc(C(F)(F)F)cc2)C3=N1 | inconclusive: 3.38 µM [inhibitor, single point]
CCOC(=O)C1(C(=O)OCC)CC2=C(C=CC3=C(C=C2)CC(C(=O)OCC)(C(=O)OCC)C3)C1 | inconclusive: 2.69 µM [inhibitor, single point]
COC(=O)CCC(=O)OC1(C)C(=O)C=C2C=C(C3CC3)N(c3cccc(C#N)c3)C=C2C1=O (centres undefined) | inconclusive: 3.38 µM [inhibitor, single point]
C=CCN1c2ccccc2[C@]23C[C@@H](C(=O)OC)N(C(=O)c4cccs4)C2=NC(C(=O)OC)=C(C(=O)OC)[C@H]13 | inconclusive: 1.69 µM [inhibitor, single point]
CCCCc1cc2c(cn1)=C(OC(=O)c1cnc3ccccc3n1)C(C)(OC(=O)CC)C(=O)C=2 (centres undefined) | active: 1.69 µM
C#CCCCON=C1C[C@@H](O)[C@H](O)[C@H]2[C@@H]3C(=O)N(C4CCCCC4)C(=O)[C@@H]3CC[C@@H]12 | inconclusive: 1.9 µM [inhibitor, single point]
COc1ccc2c(c1)[C@@]1(OCCC=C[C@@H]1C)C(=O)N2Cc1ccc(F)cc1 | inconclusive: 0.0675 µM [inhibitor, full curve]
CC1(OC(=O)CCc2ccccc2)C(=O)C=C2C=C(c3ccc(C#N)cc3)N(c3ccccc3)C=C2C1=O (centres undefined) | inactive
C=C(C)C1CC23C(=O)[C@]4(C(=O)c5ccccc5)C[C@@]5(C)CCC(CC2C1(C)C)(C4=O)[C@@]35OC (some centres undefined) | inconclusive: 1.69 µM [inhibitor, single point]
C=C(C(C)=O)C(O)c1ccccc1 (centres undefined) | inconclusive: 1.51 µM [inhibitor, single point]
COc1cccc(C(CC2=CCCCC2)NC(=O)C(F)(F)F)c1 (centres undefined) | inconclusive: 3.38 µM [inhibitor, single point]
C[C@H]1Cc2c(COc3ccccc3)nc3c(c2CO1)CN(C(=O)c1cc(I)ccc1F)CC3 | inconclusive: 1.69 µM [inhibitor, partial curve] and inconclusive: 4.26 µM [inhibitor, single point]
COC(=O)C1=C(C(=O)OC)[C@@H]2N(C)c3ccc(OC)cc3[C@@]23C[C@@H](C(=O)OC)N(S(=O)(=O)c2ccc(C(F)(F)F)cc2)C3=N1 | inconclusive: 3.01 µM [inhibitor, single point]
C=C(C#Cc1ccc(OC)cc1)CCN1C=C(C(=O)OCC)C(c2ccccc2)NC1=O (centres undefined) | inactive
COc1ccc2c(c1)[C@@H](NC(=O)C(F)(F)F)C1CCCCC21c1ccccc1 (some centres undefined) | inconclusive: 3.79 µM [inhibitor, single point]
COC(=O)C1=C(C(=O)OC)[C@@H]2N(C)c3ccc(OC)cc3[C@@]23C[C@@H](C(=O)OC)N(S(=O)(=O)c2ccc(C)cc2)C3=N1 | inconclusive: 1.69 µM [inhibitor, single point]
Cc1cc2c(c(=O)o1)[C@H]1O[C@](CCCCN3C(=O)c4ccccc4C3=O)(Cc3cc(C#N)ccc31)O2 | inconclusive: 4.26 µM [inhibitor, single point]
COC(=O)N1C2=C(c3ccccc3[C@@H]1CC(=O)Nc1ccc(Br)cc1)[C@@H]1C(=O)N(c3ccccc3)C(=O)[C@@H]1[C@H](C)C2 | inconclusive: 1.69 µM [inhibitor, single point]
COc1ccc2c(c1)c(CC(=O)NCc1ccc3c(c1)OCO3)c(C)n2C(=O)c1ccc(Cl)cc1 | inactive
COC(=O)C1=C(C(=O)OC)[C@@H]2N(C)c3ccccc3[C@@]23CCC(=O)N(Cc2ccc(OC)cc2)C3=N1 | inconclusive: 3.79 µM [inhibitor, single point]
COc1cccc([C@@H]2Oc3ccc(OC)cc3C(=O)[C@@H]2OC(=O)N[C@H]2CCCc3ccccc32)c1 | inconclusive: 1.9 µM [inhibitor, partial curve]
COc1cccc(CC(=O)N2CCc3nc(-c4ccc(OC)cc4C)c4c(c3C2)CO[C@@H](c2ccccc2)C4)c1 | inconclusive: 1.9 µM [inhibitor, single point]
